# The other results are listed elsewhere or left out. The full chains were built here from the parent and the listed change. Values near 0.05 are background.
# B1: TEV protease; numbered along this chain (parent)
# chain: MGESLFKGPRDYNPISSSICHLTNESDGHTTSLYGIGFGPFIITNKHLFRRNNGTLVVQSLHGVFKVKDTTTLQQHLVDGRDMIIIRMPKDFPPFPQKLKFREPQREERICLVTTNFQTKSMSSMVSDTSCTFPSGDGIFWKHWIQTKDGQCGSPLVSTRDGFIVGIHSASNFTNTNNYFTSVPKNFMELLTNQEAQQWVSGWRLNADSVLWGGHKVFMVKPEEPFQPVKEATQL
# Variants of: B1
# Test: raw area under fraction-flipped curve 0-4 h after induction (AUC4h, not background-subtracted), DNA-recorder readout of cleavage of the substrate (dimensionless); higher = more cleavage of the substrate by the protease variant
# Details: temperature: 34 °C; time window: 0-4 h after rhamnose induction
# Experimental: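 In vivo DNA recorder in E. coli TOP10(DE3) ΔrhaA at 34 °C. Each TEVp single-site mutant (parent TEVp 0) is paired with a single-site variant of the 7-mer TEVs (canonical ENLYFQ|S). The substrate sits between flexible linkers in a Bxb1-sfGFP-TEVs-SsrA fusion, so cleavage stabilises Bxb1 and speeds flipping of a recombination array, read by NGS. The value is the raw area under the fraction-flipped curve over 0-4 h after rhamnose induction (AUC4h), with ≥20 reads per time point. It is not background-subtracted; inactive controls average about 0.047.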
# 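Also: Bxb1 expression induced with 0.2% (w/v) L-rhamnose at OD600 near 0.5, cultures sampled hourly, flipped fraction per protease–substrate barcode pair counted by paired-end Illumina sequencing.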
Variant,area with substrate ANLYFQS,area with substrate CNLYFQS,area with substrate DNLYFQS,area with substrate FNLYFQS,area with substrate GNLYFQS,area with substrate HNLYFQS,area with substrate INLYFQS,area with substrate LNLYFQS,area with substrate MNLYFQS,area with substrate NNLYFQS,area with substrate PNLYFQS,area with substrate SNLYFQS,area with substrate TNLYFQS,area with substrate VNLYFQS,area with substrate WNLYFQS,area with substrate YNLYFQS,area with substrate KNLYFQS,area with substrate QNLYFQS,area with substrate RNLYFQS
MGESLFKGPRDYNPISSSHCHLTNESDGHTTSLYGIGFGPFIITNKHLFRRNNGTLVVQSLHGVFKVKDTTTLQQHLVDGRDMIIIRMPKDFPPFPQKLKFREPQREERICLVTTNFQTKSMSSMVSDTSCTFPSGDGIFWKHWIQTKDGQCGSPLVSTRDGFIVGIHSASNFTNTNNYFTSVPKNFMELLTNQEAQQWVSGWRLNADSVLWGGHKVFMVKPEEPFQPVKEATQL [I19H],0.0744,0.0588,0.0514,0.0409,0.076,0.0483,0.044,0.0593,0.0542,0.0503,0.0535,0.0597,0.0718,0.0375,0.0477,0.0726,,,
MGESLFKGPRDYNPISSSICHLTNESDGHTTSLYGIGFQPFIITNKHLFRRNNGTLVVQSLHGVFKVKDTTTLQQHLVDGRDMIIIRMPKDFPPFPQKLKFREPQREERICLVTTNFQTKSMSSMVSDTSCTFPSGDGIFWKHWIQTKDGQCGSPLVSTRDGFIVGIHSASNFTNTNNYFTSVPKNFMELLTNQEAQQWVSGWRLNADSVLWGGHKVFMVKPEEPFQPVKEATQL [G39Q],0.0186,0.0407,0.0542,,0.0114,0.0605,0.0379,0.0439,0.0518,0.0417,0.041,0.0414,0.0373,0.0463,0.034,0.0716,0.0558,0.0472,
MGESLFKGPRDYNPISSSICHLTNESKGHTTSLYGIGFGPFIITNKHLFRRNNGTLVVQSLHGVFKVKDTTTLQQHLVDGRDMIIIRMPKDFPPFPQKLKFREPQREERICLVTTNFQTKSMSSMVSDTSCTFPSGDGIFWKHWIQTKDGQCGSPLVSTRDGFIVGIHSASNFTNTNNYFTSVPKNFMELLTNQEAQQWVSGWRLNADSVLWGGHKVFMVKPEEPFQPVKEATQL [D27K],0.0605,0.0562,0.0804,,,0.0577,,0.0679,,,,0.0599,0.063,0.0612,0.0662,0.051,,,
MGESLFKGPRDYNPISSSICHLTNESDGHTTSLYGIGFGPFIITNKHLFRRNNGTLVVQSLHGVFKVKDTTTLQQHLCDGRDMIIIRMPKDFPPFPQKLKFREPQREERICLVTTNFQTKSMSSMVSDTSCTFPSGDGIFWKHWIQTKDGQCGSPLVSTRDGFIVGIHSASNFTNTNNYFTSVPKNFMELLTNQEAQQWVSGWRLNADSVLWGGHKVFMVKPEEPFQPVKEATQL [V78C],0.0762,0.0825,0.0902,,0.0888,0.0749,0.0453,0.0671,0.0667,,,0.0777,0.045,,0.0597,0.0591,,,
MGESLFKGPRDYNPISSSICHLTNESDGHTTSLYGIGFGPFIITNKHLFRRNNGTLVVQSLHGVFKVKDTTTLQQHLVDGRDMIIIRMPKDFPPFPQKLKFREPQREERICLVTTNFQTKSMSSMVSDISCTFPSGDGIFWKHWIQTKDGQCGSPLVSTRDGFIVGIHSASNFTNTNNYFTSVPKNFMELLTNQEAQQWVSGWRLNADSVLWGGHKVFMVKPEEPFQPVKEATQL [T129I],0.0621,0.0645,0.0748,0.0472,0.0825,0.0522,,0.0566,0.0601,,0.0901,,,,,,0.0565,,0.0591
MGESLFKGPRDYNPISSSICHLTNESDGHTTSLYGIGFGPFIITNKHLFRRNNGTLVVQSLHGVFKVKDTTTLQQHLVDGRDMIIIRMPKDFPPFPQKLKFREPCREERICLVTTNFQTKSMSSMVSDTSCTFPSGDGIFWKHWIQTKDGQCGSPLVSTRDGFIVGIHSASNFTNTNNYFTSVPKNFMELLTNQEAQQWVSGWRLNADSVLWGGHKVFMVKPEEPFQPVKEATQL [Q105C],0.0781,0.0677,0.0687,,0.0698,0.0493,0.0435,0.0693,0.0723,0.0935,,,,0.086,0.0628,0.0544,,0.0471,
MGESLFKGPRDYNPISSSICHLTNESDGHTTSLYGIGFGPFIITNKHLFRRNNRTLVVQSLHGVFKVKDTTTLQQHLVDGRDMIIIRMPKDFPPFPQKLKFREPQREERICLVTTNFQTKSMSSMVSDTSCTFPSGDGIFWKHWIQTKDGQCGSPLVSTRDGFIVGIHSASNFTNTNNYFTSVPKNFMELLTNQEAQQWVSGWRLNADSVLWGGHKVFMVKPEEPFQPVKEATQL [G54R],0.058,0.0513,0.056,0.0497,,0.0578,0.0833,0.0591,0.0664,0.0562,0.0605,0.0789,0.0653,,0.0658,0.0572,0.0674,,
MGESLFKGPRDYNPISSSICHLTNESDGHTTSLYGIGFGPFIITIKHLFRRNNGTLVVQSLHGVFKVKDTTTLQQHLVDGRDMIIIRMPKDFPPFPQKLKFREPQREERICLVTTNFQTKSMSSMVSDTSCTFPSGDGIFWKHWIQTKDGQCGSPLVSTRDGFIVGIHSASNFTNTNNYFTSVPKNFMELLTNQEAQQWVSGWRLNADSVLWGGHKVFMVKPEEPFQPVKEATQL [N45I],0.0498,0.0575,0.0745,0.0483,,0.0514,0.0511,0.065,0.0468,0.0475,,0.0537,0.0575,0.0155,0.052,0.0586,0.0907,,
MGESLFKGPRDYNPISSSICHLTNESDGHTTSLYGIGFGPFIITNKHLFRRNNGTLVVQSLHGVFKVKDTTTLQQHLVDGRDMIIIRMPKDFPPFPQKLKFREPQREERICLVTTNFQTKSMSSMVSDTSCTFPSGDGIFWKHWIQTKDGQCGSPLVSTRDGFIVGIHSASNFTNTNNYFTSVPKNFMELLTNQEAQQWVSGWRLNADSVLWGGHKVFMVKPEEPFQPVKEAHQL [T233H],0.0534,0.0797,0.0773,0.0915,,0.0598,0.0699,0.0735,,,0.043,,0.0824,0.0686,0.0603,0.0499,,,

# Source: the supplement of paper PMC12217912
